The whole screen tested about 390,000 compounds, of which about 2,200 (0.56%) were called active. Inconclusive results, whose numbers are uncertain, are shown with a selection of clear calls. Calls come from the whole dose curve; as a rule, active = well fitted inhibition curve with a large enough effect; inconclusive = small, poorly fitted or top-dose-only effect; inactive = no such curve, though single readings can be large or run the other way. Potencies of inconclusive entries are doubtful fits and often do not repeat.
Target: Chromobox protein homolog 1 (Homo sapiens) (UniProt P83916)
UniProt P83916, sequence (P83916 whole entry, looked up): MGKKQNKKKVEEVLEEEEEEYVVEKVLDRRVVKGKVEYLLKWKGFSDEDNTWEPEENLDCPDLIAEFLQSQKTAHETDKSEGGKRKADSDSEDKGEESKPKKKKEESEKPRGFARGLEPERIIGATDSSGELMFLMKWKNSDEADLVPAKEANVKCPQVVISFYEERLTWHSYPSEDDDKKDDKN
Assay: HTS for Inhibitors of HP1-beta Chromodomain Interactions with Methylated Histone Tails; note: nearly all actives have a fitted effect of over 70% in size
Details: AlphaScreen HP1-beta / biotin-H3K9me3 peptide binding; series mostly up to 114 µM; activity change, negative = inhibition: at the top concentration
Summary of the method: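 HP1-beta protein (50 nM final) preincubated 30 min at room temperature with biotinylated H3(1-18)K9me3 peptide (50 nM) in PBS pH 7.4, 0.01% Tween-20, then compound added for 30 min. AlphaScreen streptavidin donor/nickel chelate acceptor beads (10 ug/mL final), 30 min dark, luminescence read.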
Potency is the fitted concentration of half-maximal effect; tags give direction and shape of the fitted curve.

| Structure (SMILES) | Potency | activity change, negative = inhibition |
| --- | --- | --- |
| COc1ccc(Br)cc1CNc1ccc(N2CCOCC2)cc1 | inconclusive: 35.5 µM [inhibitor, partial curve] | – |
| COc1cc(CN2CCCC(CO)(Cc3cccc(Cl)c3)C2)cc(OC)c1O (centres undefined) | – | inactive: 6.07% |
| CC(C)(C)CN1CCNC(=O)C1CC(=O)N1CCOc2ccccc2C1 (centres undefined) | – | inactive: 32.2% |
| COc1ccc(C)cc1S(=O)(=O)NC1CCCCC1C (centres undefined) | inconclusive: 25.1 µM [inhibitor, single point] | – |
| CCOC(=O)CCCc1sc(N)nc1-c1[nH]c(=O)[nH]c1C | inconclusive: 7.94 µM [inhibitor, partial curve, poor fit] | – |
| COc1ccc(Nc2ccc(N3C(=O)CC(C)C3=O)cc2[N+](=O)[O-])cc1OC (centres undefined) | inconclusive: 44.7 µM [inhibitor, partial curve] | – |
| O=C(NCc1ccco1)/C(=C/c1ccc(C(F)(F)F)cc1)c1nc2ccccc2[nH]1 | – | inactive: 37.3% |
| Cc1nc(C)n(CC(C)C(=O)N2CCN(S(=O)(=O)c3ccc(Cl)cc3)CC2)n1 (centres undefined) | inconclusive: 89.1 µM [inhibitor, partial curve, poor fit] | – |
| CCCCn1c(-c2ccco2)n[nH]c1=S | inconclusive: 56.2 µM [inhibitor, partial curve, poor fit] | – |
| CSc1nc(=NC(C)=O)ss1 | inconclusive: 39.8 µM [inhibitor, single point] | – |
| Cc1occc1-c1nnc(SCC(=O)N2CCN(c3ccccc3)CC2)n1C | – | inactive: 28% |
| O=C(NNC(=S)Nc1cccc2ccccc12)c1cccc(Br)c1 | inconclusive: 35.5 µM [inhibitor, partial curve] | – |
| COc1ccc(N2CCN(C(=O)CSc3nc4cc(OC)c(OC)cc4cc3C#N)CC2)cc1 | inconclusive: 89.1 µM [inhibitor, single point] | – |
| CC(=O)NC1C(=O)N(CCN2CCOCC2)c2ccc(Cl)cc21 (centres undefined) | inconclusive: 56.2 µM [inhibitor, partial curve, poor fit] | – |
| CC1CC(C)CN(C(=O)CSc2nnc3ccccn23)C1 (centres undefined) | – | inactive: 36.6% |
| Cc1cc(C)c(S(=O)(=O)/N=C2\C=CC(=O)C(Cl)=C2)c(C)c1 | inconclusive: 20 µM [inhibitor, full curve, poor fit] | – |
| O=C(NNc1ccc(O)cc1)c1ccc(Br)cc1 | inconclusive: 56.2 µM [inhibitor, single point] | – |
| Cn1nnc(NC(=S)NC(=O)c2ccc(-c3ccc(Br)cc3)o2)n1 | – | inactive: -7.22% |
| CCc1ccccc1NC(=O)CCS(=O)(=O)c1cccc2nonc12 | – | inactive: 32.8% |
| O=C(CN(Cc1ccco1)Cc1ccco1)Nc1cc(S(=O)(=O)N2CCCCC2)ccc1Cl | – | inactive: 38.9% |
| Cc1ccc(NC(=O)CN(C)C(=O)c2cccc(-n3cccc3)c2)cc1 | active: 20 µM | – |
| O=C1c2ccccc2C(=O)c2c1oc(C(F)(F)F)c2C(=O)c1ccccc1 | inconclusive: 14.1 µM [inhibitor, partial curve, poor fit] | – |
| O=C(c1cccnc1)N1CCN(Cc2ccc3c(c2)OCO3)CC1 | inconclusive: 22.4 µM [inhibitor, partial curve, poor fit] | – |
| Cc1cccc(CN2CCN(C(=O)c3cccc4ccccc34)CC2)c1 | inconclusive: 56.2 µM [inhibitor, partial curve, poor fit] | – |
| CCOc1ccc(NC(=O)Cn2c(CCC(=O)O)ccc2-c2ccc(C)cc2)cc1 | – | inactive: -0.558% |

| Structure (SMILES) | Potency | activity change, negative = inhibition |
| --- | --- | --- |
| CCCCNc1c(-c2ccc(-c3cccc(Cl)c3)cc2)nc2ccccn12 | inconclusive: 44.7 µM [inhibitor, partial curve] | – |
| O=C(O)c1ccc2nc(-c3ccco3)c(-c3ccco3)nc2c1 | inconclusive: 56.2 µM [inhibitor, partial curve, poor fit] | – |
| O=C(NC12CC3CC(CC(C3)C1)C2)c1ccc(-c2ccc(Cl)cc2)o1 | inconclusive: 25.1 µM [inhibitor, partial curve] | – |
| O=C(C(=NNc1ccccc1)c1ccccc1)c1ccccc1 | inconclusive: 15.8 µM [inhibitor, partial curve] | – |
| CC(=O)c1cccc(NC(=O)c2ccc3nc(C(C)C)oc3c2)c1 | – | inactive: 11.4% [at 57 µM] |
| CCc1ccc(CN2CCSCC2)cc1 | inconclusive: 70.8 µM [inhibitor, single point] | – |
| CCOC(=O)c1cc(-c2ccc(OC)cc2)nn1Cc1ccccc1 | – | inactive: 132% |
| COc1ccccc1/C=C1\SC(=S)N(CCC(=O)NC2=NCCS2)C1=O | inconclusive: 14.1 µM [inhibitor, partial curve, poor fit] | – |
| COc1ccc(CNC(c2ccccc2)c2ccc(Cl)cc2)cc1 (centres undefined) | inconclusive: 17.8 µM [inhibitor, full curve] | – |
| CN(C)C(=O)NC(NC(=S)Nc1ccccc1)C(Cl)(Cl)Cl (centres undefined) | inconclusive: 8.91 µM [inhibitor, full curve, poor fit] | – |
| N#C/C(=C\c1ccc(-c2ccc(C(=O)O)cc2)o1)c1nc2ccccc2[nH]1 | inconclusive: 89.1 µM [inhibitor, single point] | – |
| COC(=O)c1ccc(Oc2ccc(S(=O)(=O)N3CCCCC3)cc2N)cc1 | inconclusive: 89.1 µM [inhibitor, partial curve, poor fit] | – |
| COc1ccc(NS(=O)(=O)c2ccc(C)c(C(=O)N3CCN(Cc4cc(OC)ccc4OC)CC3)c2)cc1 | – | inactive: 34.2% |
| CCCCn1c(N)c(N(CC(C)C)C(=O)C2CCN(S(=O)(=O)c3ccc(C)cc3)CC2)c(=O)[nH]c1=O | – | inactive: 13.8% |
| C=CCNC(=S)N/N=C/c1cn(C)c2ccccc12 | inconclusive: 79.4 µM [inhibitor, single point] | – |
| O=C1c2cccnc2C(O)N1Cc1ccco1 (centres undefined) | – | inactive: 11.8% |
| Cc1cc(=O)oc2cc(NC(=S)NNC(=O)c3c(Cl)cnn3C)ccc12 | inconclusive: 56.2 µM [inhibitor, single point] | – |
| COc1ccc(NC(=O)c2c(C)oc3ccc(O)c(CN4CCOCC4)c23)cc1 | – | inactive: 29.3% |
| C(=C\c1ccccn1)/c1ccccn1 | – | inactive: -10.6% [at 57 µM] |
| O=C(O)c1ccc(N=Nc2c(O)ccc3ncccc23)cc1 | inconclusive: 35.5 µM [inhibitor, partial curve, poor fit] | – |
| Cc1c(Cl)cccc1NS(=O)(=O)c1ccccc1 | – | inactive: 2.62% |
| CC(C)N=C1NN=C(c2cccs2)C(CC(=O)O)S1 (centres undefined) | inconclusive: 39.8 µM [inhibitor, partial curve] | – |
| CCSc1cc(Cl)nc(N)n1 | – | inactive: 2.56% |
| CCc1c(C)nc(N)c(C#N)c1-c1ccccc1 | – | inactive: 38.2% |
| Clc1ccc(Cl)c(-c2nn3c(COc4ccccc4)nnc3s2)c1 | inconclusive: 31.6 µM [inhibitor, partial curve, poor fit] | – |

| Structure (SMILES) | Potency | activity change, negative = inhibition |
| --- | --- | --- |
| Cc1ccc(C2/C(=C(/O)c3ccc(Br)cc3)C(=O)C(=O)N2Cc2ccco2)o1 (centres undefined) | – | inactive: 8.8% |
| O=C(COc1ccccc1-c1ccccc1)NNC(=O)NC1CCCCC1 | – | inactive: 22.2% |
| Cc1ccc(NS(=O)(=O)c2ccc(C(=O)NC3CCN(Cc4ccccc4)CC3)cc2)cc1 | inconclusive: 3.98 µM [inhibitor, full curve, poor fit] | – |
| O=C(CCn1c(=O)sc2ccccc21)Nc1cccnc1 | – | inactive: 10.7% |
| O=C(/C=C/c1ccco1)OCc1nnc(-c2ccc(Cl)cc2)o1 | inconclusive: 70.8 µM [inhibitor, partial curve] | – |
| COC(=O)C1=C(C)Nc2ccc(C)cc2S1 | inconclusive: 50.1 µM [inhibitor, partial curve] | – |
| CCn1nc(C)cc1-c1n[nH]c(=S)n1N | inconclusive: 100 µM [inhibitor, single point] | – |
| Cc1nc2c(nnn2Cc2ccccc2)c(=O)[nH]1 | inconclusive: 10 µM [inhibitor, full curve, poor fit] | – |
| COc1cc(OC)c2c(-c3ccccc3)cc(=O)oc2c1C(CCN1CCOCC1)c1ccc2c(c1)OCO2 (centres undefined) | inconclusive: 28.2 µM [inhibitor, partial curve] | – |
| CCCCC(=O)NC(c1ccc(N(C)C)cc1)c1ccc2cccnc2c1O (centres undefined) | inconclusive: 15.8 µM [inhibitor, full curve, poor fit] | – |
| O=C(CSc1cn(CCNC(=O)c2c(F)cccc2F)c2ccccc12)Nc1ccccc1F | – | inactive: 43.6% |
| c1ccc2cc(OCCCn3ccnc3)ccc2c1 | inconclusive: 15.8 µM [inhibitor, full curve] | – |
| CC(C)Nc1nc(-c2ccncc2)nc(-c2ccc(Cl)cc2)c1C#N | inconclusive: 31.6 µM [inhibitor, full curve] | – |
| CCc1ccccc1NC(=O)CN(C1CCCCC1)S(C)(=O)=O | – | inactive: 45.2% |
| Cc1ccc(SC2=C(Sc3ccc(C)cc3)C(=O)c3ccccc3C2=O)cc1 | active: 3.55 µM | – |
| COc1ccc(Br)cc1CNC(=O)Cn1ncn2nc(-c3cccs3)cc2c1=O | – | inactive: 18.5% |
| Cc1cc(C)n(CC(=O)Nc2ccccc2)n1 | inconclusive: 39.8 µM [inhibitor, single point] | – |
| CCn1c(=O)cc(OCC(=O)NCCc2cccc(C)c2)c2ccccc21 | – | inactive: 44.6% |
| Nc1ccccc1Sc1ccc(C(=O)c2ccccc2C(=O)O)cc1[N+](=O)[O-] | – | inactive: 1.29% |
| NC(=O)c1nn(-c2ccc(Cl)cc2Cl)c(=O)cc1O | – | inactive: 20% |
| CC(C)(NC(=O)c1ccccc1)c1nc2ccccc2s1 | inconclusive: 44.7 µM [inhibitor, partial curve] | – |
| CN(C)c1cc(NC(=O)CNC(C)(C)CC(C)(C)C)c2ccccc2n1 | inconclusive: 35.5 µM [inhibitor, partial curve] | – |
| CCOc1ccc(NC(=O)c2ccc(N)cc2)cc1 | – | inactive: 49.7% |
| Cc1ccc(NCC(=O)c2ccc([N+](=O)[O-])cc2)cc1 | inconclusive: 31.6 µM [inhibitor, partial curve] | – |

— PubChem BioAssay AID540317 (National Center for Advancing Translational Sciences (NCATS), 2011)
